Laboratory results: the supplement of paper PMC4967469

Key:
Assay in all cases: Viability of human cancer cell lines after 72 h of drug (GDSC screen)
[1] = compound: CO[C@@]12[C@H](COC(N)=O)C3=C(C(=O)C(C)=C(N)C3=O)N1C[C@@H]1N[C@@H]12 [Mitomycin C]; settings: top dose 16 µM
Method: (§1)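 Human cancer cell lines in 384-well plates, medium with 10% serum, drug for 72 h over a 256-fold dose range (nine 2-fold or five 4-fold steps up to the top dose). Adherent lines were fixed and stained with the nucleic acid dye Syto60, suspension lines read with resazurin; signal relative to control wells, capped at 0 and 100%. One two-parameter sigmoid per drug and line, fitted in a mixed model over all curves with the slope shared within a line.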

[2] = compound: O=C(O)CNC(=O)c1c(O)c2ccccc2n(Cc2ccccc2)c1=O [IOX2]; settings: top dose 0.1 µM; top dose inferred
Method: as §1

[3] = compound: Cc1ccc(C(=O)Nc2cccc(C(F)(F)F)c2)cc1Nc1nc(-c2cccnc2)nc2c1cnn2C [NVP-BHG712]; settings: top dose 10.24 µM; top dose inferred
Method: as §1

[4] = compound: COc1cc(Nc2c(C#N)cnc3cc(OCCCN4CCN(C)CC4)c(OC)cc23)c(Cl)cc1Cl [Bosutinib]; settings: top dose 2 µM
Method: as §1

[5] = compound: CO[C@@H]1[C@H](N(C)C(=O)c2ccccc2)C[C@H]2O[C@]1(C)n1c3ccccc3c3c4c(c5c6ccccc6n2c5c31)C(=O)NC4 [Midostaurin]; settings: top dose 0.512 µM; top dose inferred
Method: as §1

Row | Cell Line | AUC [1] | IC50 [1] [nM] | AUC [2] | IC50 [2] [nM] | AUC [3] | IC50 [3] [nM] | AUC [4] | IC50 [4] [nM] | AUC [5] | IC50 [5] [nM]
1 | GAK (melanoma, adherent) | 0.425 | 630 | 0.977 | > 100 | – | – | – | – | – | –
2 | HCC202 (breast, adherent) | 0.626 | 2560 | 0.977 | > 100 | 0.939 | > 10200 | 0.981 | > 2000 | – | –
3 | OVCAR-4 (ovary, adherent) | 0.468 | 786 | 0.962 | > 100 | 0.878 | > 10200 | 0.849 | > 2000 | – | –
4 | NCI-H226 (lung squamous cell carcinoma, adherent) | 0.448 | – | 0.94 | > 100 | 0.841 | 7670 | 0.987 | > 2000 | – | –
5 | SK-MEL-28 (melanoma, adherent) | 0.812 | 8370 | 0.843 | 68.9 | 0.742 | 3100 | – | – | – | –
6 | OVCAR-3 (ovary, adherent) | 0.501 | 1000 | 0.985 | > 100 | 0.986 | > 10200 | – | – | – | –
7 | Ca9-22 (head and neck, adherent) | – | – | 0.987 | > 100 | 0.926 | > 10200 | 0.863 | 1520 | 0.975 | > 512
8 | NCI-H2228 (lung adenocarcinoma, adherent) | 0.085 | < 62.5 | 0.973 | > 100 | 0.955 | > 10200 | – | – | – | –
9 | MV-4-11 (leukaemia, suspension) | 0.026 | < 62.5 | 0.979 | > 100 | 0.949 | > 10200 | – | – | – | –
10 | HCC-44 (lung adenocarcinoma, adherent) | – | – | 0.984 | > 100 | 0.841 | 6910 | 0.986 | > 2000 | 0.741 | 153
11 | MG-63 (osteosarcoma, adherent) | – | – | 0.979 | > 100 | 0.984 | > 10200 | 0.981 | > 2000 | 0.75 | 190
12 | NCI-H630 (large intestine, adherent) | – | – | 0.976 | > 100 | 0.974 | > 10200 | 0.969 | > 2000 | 0.904 | > 512
13 | Hs746T (stomach, adherent) | – | – | 0.978 | > 100 | 0.939 | > 10200 | 0.967 | > 2000 | 0.972 | > 512
14 | Ca-Ski (cervix, adherent) | – | – | 0.981 | > 100 | 0.854 | 9690 | 0.684 | 437 | 0.906 | > 512
15 | LN-229 (glioma, adherent) | – | – | 0.987 | > 100 | 0.973 | > 10200 | 0.941 | > 2000 | 0.97 | > 512
16 | K-562 (chronic myeloid leukaemia, suspension) | 0.61 | – | – | – | 0.204 | 88.5 | – | – | – | –
17 | U-2-OS (osteosarcoma, adherent) | – | – | 0.98 | > 100 | 0.985 | > 10200 | 0.934 | > 2000 | 0.907 | > 512
18 | KP-2 (pancreas, adherent) | – | – | 0.985 | > 100 | 0.947 | > 10200 | 0.978 | > 2000 | 0.959 | > 512
19 | NCI-H596 (lung adenocarcinoma, adherent) | – | – | 0.974 | > 100 | 0.915 | > 10200 | 0.982 | > 2000 | 0.982 | > 512
20 | NCI-H522 (lung adenocarcinoma, adherent) | 0.276 | 203 | 0.982 | > 100 | 0.96 | > 10200 | – | – | – | –
21 | NCI-H520 (lung squamous cell carcinoma, adherent) | – | – | 0.985 | > 100 | 0.711 | 2570 | 0.987 | > 2000 | 0.967 | > 512
22 | LoVo (large intestine, adherent) | – | – | 0.98 | > 100 | 0.895 | > 10200 | 0.877 | > 2000 | 0.892 | > 512
23 | HEL (acute myeloid leukaemia, semi-adherent) | 0.182 | 140 | 0.989 | > 100 | 0.91 | > 10200 | – | – | – | –
24 | PCI-6A (head and neck, adherent) | – | – | 0.986 | > 100 | 0.915 | > 10200 | 0.65 | 322 | 0.875 | 486
25 | NB1 (neuroblastoma, semi-adherent) | – | – | 0.981 | > 100 | 0.876 | > 10200 | 0.962 | > 2000 | 0.984 | > 512
26 | NCI-H2030 (lung adenocarcinoma, adherent) | 0.298 | 247 | 0.981 | > 100 | 0.871 | > 10200 | – | – | – | –
27 | NCI-H358 (lung adenocarcinoma, adherent) | – | – | 0.982 | > 100 | 0.823 | 6970 | 0.914 | > 2000 | 0.799 | 277

A lower IC50 marks a more sensitive line; a limit (>, <) means that the fit lies beyond the doses tested. The AUC spans the tested range (256-fold, ending at the top dose) of the same fit; it is 1 without any effect and falls as sensitivity rises. For part of these data: Any top dose called inferred is not printed in the source and was worked back from the curve model.
